The whole screen tested about 310,000 compounds, of which about 2,200 (0.71%) showed an effect of 50% or more. Effects have a minus sign here. The list shows a part of the results.
Biological target: human ether-à-go-go-related gene (hERG) potassium channel (human, UniProt Q12809)
Experiment: primary screen, population patch clamp on CHO cells stably expressing hERG

Chain of human ether-à-go-go-related gene (hERG) potassium channel (Q12809 whole entry, looked up): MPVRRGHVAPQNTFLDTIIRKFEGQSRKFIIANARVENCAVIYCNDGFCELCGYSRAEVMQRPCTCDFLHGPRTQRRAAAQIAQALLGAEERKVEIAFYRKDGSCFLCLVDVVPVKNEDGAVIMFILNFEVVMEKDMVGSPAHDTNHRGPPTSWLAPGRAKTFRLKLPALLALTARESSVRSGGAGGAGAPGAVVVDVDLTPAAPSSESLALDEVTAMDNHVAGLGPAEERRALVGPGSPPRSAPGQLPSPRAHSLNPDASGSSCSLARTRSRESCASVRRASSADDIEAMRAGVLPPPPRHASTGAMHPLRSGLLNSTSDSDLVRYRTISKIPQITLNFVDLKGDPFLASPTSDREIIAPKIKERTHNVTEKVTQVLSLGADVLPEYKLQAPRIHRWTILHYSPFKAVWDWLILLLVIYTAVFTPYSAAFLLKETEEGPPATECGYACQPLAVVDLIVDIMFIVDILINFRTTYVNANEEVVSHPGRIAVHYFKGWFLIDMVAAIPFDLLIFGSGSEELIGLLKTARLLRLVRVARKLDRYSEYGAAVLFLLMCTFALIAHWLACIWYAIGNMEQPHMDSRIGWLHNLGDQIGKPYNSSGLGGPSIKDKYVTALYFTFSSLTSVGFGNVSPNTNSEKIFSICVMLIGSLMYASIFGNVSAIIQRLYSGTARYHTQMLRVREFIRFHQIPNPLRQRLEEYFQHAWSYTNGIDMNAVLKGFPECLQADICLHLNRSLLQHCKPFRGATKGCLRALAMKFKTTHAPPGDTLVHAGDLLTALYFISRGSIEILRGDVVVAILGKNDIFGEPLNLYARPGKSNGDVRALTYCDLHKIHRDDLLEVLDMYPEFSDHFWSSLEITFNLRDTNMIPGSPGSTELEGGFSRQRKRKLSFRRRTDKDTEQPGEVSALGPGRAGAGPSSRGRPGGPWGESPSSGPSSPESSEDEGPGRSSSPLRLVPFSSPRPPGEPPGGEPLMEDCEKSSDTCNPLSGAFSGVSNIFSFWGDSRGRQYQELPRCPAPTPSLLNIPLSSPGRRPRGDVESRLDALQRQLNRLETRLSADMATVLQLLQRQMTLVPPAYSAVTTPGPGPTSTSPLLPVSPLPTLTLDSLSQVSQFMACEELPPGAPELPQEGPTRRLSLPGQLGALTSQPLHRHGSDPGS

Row | Structure (SMILES) | hERG current change (%, negative = inhibition) at 1uM [%]
1 | Cc1[nH]n(-c2ccccc2)c(=O)c1/C=N/N(C)c1ccccc1 | 9.89
2 | COc1ccc(-c2csc3ncn(-c4cccc(C)c4)c(=O)c23)cc1OC | 11.8
3 | COc1ccc(/C=C2/NC(=O)N(CC(=O)Nc3cccc(C)c3)C2=O)cc1O | 7.29
4 | COc1ccc(C(=O)OCC(=O)NC2CCCC2)c(OC)c1 | 14.7
5 | Cc1ccnc2nc(C(=O)NCc3ccccc3)nn12 | 15.8
6 | O=C(NC1CCCC1)C(c1ccncc1)N(C(=O)Cc1cccs1)c1ccccc1 (stereo not drawn) | -6.88
7 | CCOc1ccc(Br)cc1S(=O)(=O)Nc1ccc(Cl)c(S(=O)(=O)N(C)C)c1 | 10.8
8 | COc1ccc(N2CCN(CCCn3c(=S)[nH]c4ncccc4c3=O)CC2)cc1 | 6.99
9 | Cc1[nH]nc2cn[nH]c12 | 5.48
10 | COc1ccc(S(=O)(=O)N(C)CC(=O)N2CCCC2)cc1Cl | 10.5
11 | CN(C)[C@@H]1C(=O)C(C(N)=O)=C(O)[C@@]2(O)C(=O)C3=C(O)c4c(O)ccc(Cl)c4[C@@H](O)[C@H]3C[C@@H]12.Cl | -17.4
12 | O=C(c1ccncc1)N1CCN(CCc2ccccc2)CC1 | 0.866
13 | CCOc1ccc(C(=O)NC(=S)Nc2cccnc2)cc1[N+](=O)[O-] | 14.5
14 | Cc1ccc(-c2nn(-c3ccccc3)cc2C2CC(c3cccs3)=NN2C(=O)CCCC(=O)O)cc1 (stereo not drawn) | 12.5
15 | Cn1c(=O)c2c(nc(CN3CCCCC3)n2CCc2ccccc2)n(C)c1=O | 0.232
16 | COc1ccc(CNc2ccc([N+](=O)[O-])cn2)cc1 | 5
17 | O=C1c2ccccc2C(=O)N1COc1ccc(S(=O)(=O)N2CCOCC2)cc1[N+](=O)[O-] | 11.7
18 | COc1cc(/C=N/NC(=O)CCC(=O)Nc2ccc(F)cc2)ccc1O | 16.4
19 | COc1ccc(N(C(=O)c2ccco2)S(=O)(=O)c2ccccc2)cc1 | -2.61
20 | CC(=O)NC1=NN(C(C)=O)C(c2ccccc2)S1 (stereo not drawn) | 13
21 | C=CCNC(=S)NNC(=O)c1ccc(OCCC)cc1 | 11.1
22 | COc1ccc(Cl)cc1C(=O)N/N=C/c1ccc(N2CCOCC2)cc1 | 7.83
23 | COC(=O)Cc1cc(=O)n(-c2nc3ccccc3s2)[nH]1 | 2.88

Row | Structure (SMILES) | hERG current change (%, negative = inhibition) at 1uM [%]
24 | Cc1ccccc1-n1c(-c2ccco2)nc2ccccc2c1=O | 4.35
25 | COc1cc(C(=O)N2CCN(C3CCC(C)CC3)CC2)cc(OC)c1OC.O=C(O)C(=O)O (stereo not drawn) | 17.5
26 | Cl.c1coc(CNCc2cccs2)c1 | 14.4
27 | Nc1nc(-c2ccco2)nn1C(=O)c1ccccc1 | 20.7
28 | COc1ccc(S(=O)(=O)N2CCC(C(=O)N(C)Cc3ccc(C)o3)CC2)cc1OC | 3.56
29 | CCOC(=O)Nc1ccc2ncn(C)c(=O)c2c1 | 17
30 | CCc1ccc(C(=O)NCC2COc3ccccc3O2)o1 (stereo not drawn) | -8.4
31 | O=C(NN1C(=O)/C(=C/c2cccs2)SC1=S)c1ccncc1 | 7.13
32 | N#Cc1ccc(C(=O)OCCc2cc3ccccc3c(=O)o2)cc1 | -8.92
33 | CCOc1ccc(-c2n[nH]c(C)c2-c2ccccc2OC)c(O)c1 | 23.1
34 | CCOc1cc(C(=O)NCc2ccccc2)ccc1OCC(=O)N1CCOCC1 | 5.05
35 | COc1cc(C)c(Br)cc1S(=O)(=O)N1CCOCC1 | 11
36 | COc1ccccc1NC(=O)/C(C#N)=C/c1cccn1C | 9.4
37 | C[C@@]12C(=O)N(c3cccc(Cl)c3)C(=O)N1[C@H](c1ccc(Cl)cc1)[C@@H]1C(=O)N(C3CCCCC3)C(=O)[C@@H]12 | 10.5
38 | CCN(c1ccccc1)S(=O)(=O)c1cc2c(cc1C)n(C)c(=O)c(=O)n2C | -16.4
39 | O=C(COc1ccccc1)N1CCN(C(=O)c2ccco2)CC1 | 5.18
40 | COc1cccc(C2C(C(=O)c3cc4ccccc4o3)=C(O)C(=O)N2CCN2CCOCC2)c1 (stereo not drawn) | 11.6
41 | C=CCN(C(=O)c1csnn1)C(C(=O)NC1CCCC1)c1ccccc1F (stereo not drawn) | 11.3
42 | Cc1cccc(NC(=O)COc2coc(CN3CCc4ccccc4C3)cc2=O)c1 | 16.9
43 | Cc1ccc(NC(=O)C(C)NS(=O)(=O)c2ccc(F)cc2)cc1C (stereo not drawn) | 4.85
44 | O=C(CC(=O)Nc1ccc(Cl)cc1Cl)Nc1ccc(Cl)cc1Cl | 18.7
45 | O=[N+]([O-])c1ccccc1S(=O)(=O)NC1CC2CCC1C2 (stereo not drawn) | 8.32
46 | FC(F)(F)c1ccccc1-n1c(-c2ccco2)n[nH]c1=S | 15.4

Row | Structure (SMILES) | hERG current change (%, negative = inhibition) at 1uM [%]
47 | CC(C)C(=O)Nc1nc(-c2ccc(S(=O)(=O)N3CCOCC3)cc2)cs1 | 4.67
48 | CCOC(=O)CCC(NC(=O)CCCC(=O)NC(CCC(=O)OCC)C(=O)OCC)C(=O)OCC (stereo not drawn) | 13.2
49 | CC(C)c1ccccc1OCCNS(C)(=O)=O | -1.46
50 | CC1CCCCN1Cc1nc2ccccc2c(=O)[nH]1 (stereo not drawn) | 11.7
51 | COc1ccc(C2/C=C\CN(C(=O)Oc3ccc(C(F)(F)F)cc3)CC(=O)N2Cc2ccc(F)cc2)cc1 (stereo not drawn) | 2.11
52 | CCOC(=O)N1CCN(Cc2nc(Cc3cccc(C(F)(F)F)c3)no2)CC1 | 3.72
53 | COc1ccccc1N1C(=O)N(CC(=O)C(C)(C)C)c2ccccc2S1(=O)=O | 12.9
54 | c1ccc(CCc2nc(-c3ccccn3)no2)cc1 | 5.84
55 | O=C(Nc1ccc([N+](=O)[O-])cn1)C1CC2CCC1C2 (stereo not drawn) | 7.87
56 | C/[N+]([O-])=C/c1c(OCc2ccc(Cl)cc2Cl)ccc2ccccc12 | 7.35
57 | Cc1ccc(NS(=O)(=O)c2ccc(N3CCN(c4ccc(O)cc4)CC3)c([N+](=O)[O-])c2)c(C)c1 | 12.3
58 | CN(C)CCNC(=O)c1c(CSc2ccc(Cl)cc2)noc1C(=O)NCc1ccccc1 | 7.72
59 | CN(C(=O)COC(=O)COc1ccc(Cl)cc1Cl)c1c(N)n(Cc2ccccc2)c(=O)[nH]c1=O | 20.9
60 | CCCN1CCN(C(=S)NCc2ccc(Cl)cc2)CC1 | -6.02
61 | CCCCS/C(N)=N/N=C/c1cc(C)ccc1O | 5.04
62 | COc1ccccc1NC(=O)Nc1cc(F)ccc1F | 21.5
63 | COc1ccc(CCN2CC(C(=O)NC3CCCCC3)CC2=O)cc1OC (stereo not drawn) | 14
64 | Cc1cc(N2CCC(C)CC2)n2nc(C)c(-c3ccccc3)c2n1 | 9.35
65 | COc1ccc(-c2nc(CS(=O)CC(=O)NC3CCCC3)c(C)o2)cc1OC (stereo not drawn) | 8.08
66 | O=C(Nc1ccccc1)OCCNC(=O)c1cccc(Br)c1 | 8.74
67 | Cc1ccc(C(=O)COC(=O)CN2C(=O)C3C4C=CC(C4)C3C2=O)cc1[N+](=O)[O-] (stereo not drawn) | 20.1
68 | CCOC(=O)Cc1csc(NC(=O)CN2CCCCC2)n1 | 15.6
69 | CCOc1nc(-c2ccccc2Cl)nc2ccccc12 | 4.21

Row | Structure (SMILES) | hERG current change (%, negative = inhibition) at 1uM [%]
70 | COc1ccc(/C=N/N2C(C)CCCC2C)cc1O (stereo not drawn) | 11.6
71 | O=C(Cn1nc(C(F)F)cc1C1CC1)N1CCCC1 | 9.01
72 | COc1ccc(NC(=O)Cn2c(C)cc(=O)c3ccccc32)cc1 | 13.4
73 | CCCc1n[nH]c2c1/C(=N\OCC)CC(C)(C)C2 | 12.8
74 | Nc1ncnc(N)c1N=Nc1ccccc1 | 9.62
75 | O=C(NCc1ccncc1)C1CCCN1S(=O)(=O)c1ccc(Cl)cc1 (stereo not drawn) | 5.02
76 | NNC(=O)c1ccc(COc2ccc([N+](=O)[O-])cc2)o1 | 9.25
77 | Cc1ccsc1/C=N/NC(=O)C1C(=O)NCC1c1ccccc1 (stereo not drawn) | 2.72
78 | Cc1noc(C)c1COC(=O)CCCc1c[nH]c2ccccc12 | 8.74
79 | CC(C)CC(=O)N1CCN(C(=O)c2ccc(-c3ccccc3)cc2)CC1 | 5.67
80 | O=C(CSc1nnc(NC(=O)c2ccc3c(c2)OCO3)s1)NCc1ccco1 | 8
81 | Cc1nonc1CN(C)C(=O)c1ccc(OC2CCN(C(=O)c3cccnc3)CC2)cc1 | 21.1
82 | COc1cccc(CC(=O)Nc2cccc3ccccc23)c1 | -0.288
83 | O=C(NCCCN1CCCCCC1)c1ccc2c(c1)NC(=O)C(N1CCOCC1)S2 (stereo not drawn) | 10
84 | CCCCCSc1nc2c(c(=O)[nH]c(=O)n2C)n1C(C)C | 7.3
85 | CCNc1ccc(C(=O)NN=C2CCCC2)cc1[N+](=O)[O-] | 5.15
86 | COc1ccc(OCc2cc(C(=O)N(C)Cc3nccn3C)no2)c2ccccc12 | 2.82
87 | NC(=O)C1(N2CCCCC2)CCN(Cc2nc(-c3cccs3)no2)CC1 | 9.61
88 | O=C(Cc1cccc(C(F)(F)F)c1)Nc1cccc(S(=O)(=O)N2CCCC2)c1 | 16.9
89 | CN=c1scc(-c2cccs2)n1/N=C/c1ccccc1O | 9.53
90 | Cc1ccc(/C=N/n2c(C)nc3ccccc3c2=O)s1 | 3.22
